For 40 compounds, IC50 results are on record in patent publication US20240254117A1, “PYRIMIDO-HETEROCYCLIC COMPOUNDS, AND PREPARATION METHOD THEREFOR AND USE THEREOF” (SHANGHAI RINGENE BIOPHARMA CO., LTD., priority 2020, published 2024).

For orientation: IC50 means the concentration that gives 50% inhibition. A high value points to lower potency.

The experiment addresses T1, KRAS^G12C/SOS1 (Homo sapiens, UniProt Q07889).
T1 sequence (Q07889 1-1333): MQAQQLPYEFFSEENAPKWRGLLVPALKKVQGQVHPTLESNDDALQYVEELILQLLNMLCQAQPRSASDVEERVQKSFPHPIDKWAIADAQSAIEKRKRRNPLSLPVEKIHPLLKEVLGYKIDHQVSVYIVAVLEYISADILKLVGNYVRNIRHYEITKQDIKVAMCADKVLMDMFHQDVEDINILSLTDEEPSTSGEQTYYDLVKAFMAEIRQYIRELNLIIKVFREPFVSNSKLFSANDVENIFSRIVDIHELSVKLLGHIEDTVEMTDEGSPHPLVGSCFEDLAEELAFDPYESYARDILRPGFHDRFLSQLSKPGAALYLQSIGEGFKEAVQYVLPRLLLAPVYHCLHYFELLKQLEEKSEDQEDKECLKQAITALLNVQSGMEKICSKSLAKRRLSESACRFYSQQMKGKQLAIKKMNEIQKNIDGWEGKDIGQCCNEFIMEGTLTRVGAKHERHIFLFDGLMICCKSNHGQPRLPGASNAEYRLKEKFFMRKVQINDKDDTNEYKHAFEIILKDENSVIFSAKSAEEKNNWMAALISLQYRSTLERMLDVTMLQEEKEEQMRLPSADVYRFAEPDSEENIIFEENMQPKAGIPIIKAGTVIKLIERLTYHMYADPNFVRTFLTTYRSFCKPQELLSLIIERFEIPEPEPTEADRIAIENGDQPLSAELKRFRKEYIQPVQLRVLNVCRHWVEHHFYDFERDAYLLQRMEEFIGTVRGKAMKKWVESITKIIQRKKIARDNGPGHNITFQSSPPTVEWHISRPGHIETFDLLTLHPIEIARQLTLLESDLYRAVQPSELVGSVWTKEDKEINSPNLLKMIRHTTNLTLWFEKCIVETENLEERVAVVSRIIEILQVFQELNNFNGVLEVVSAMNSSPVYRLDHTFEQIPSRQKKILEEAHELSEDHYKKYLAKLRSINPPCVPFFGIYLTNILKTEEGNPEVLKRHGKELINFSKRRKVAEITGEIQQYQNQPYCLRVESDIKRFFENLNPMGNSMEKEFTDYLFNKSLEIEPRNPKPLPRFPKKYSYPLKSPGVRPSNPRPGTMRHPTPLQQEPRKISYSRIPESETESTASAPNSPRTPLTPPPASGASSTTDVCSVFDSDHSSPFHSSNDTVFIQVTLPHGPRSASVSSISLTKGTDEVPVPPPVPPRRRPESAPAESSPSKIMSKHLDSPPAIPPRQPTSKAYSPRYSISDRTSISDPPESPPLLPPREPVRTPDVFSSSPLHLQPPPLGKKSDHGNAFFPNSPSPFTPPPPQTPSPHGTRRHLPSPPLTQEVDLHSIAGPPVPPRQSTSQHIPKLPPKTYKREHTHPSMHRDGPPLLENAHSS
As to the kind of experiment: biochemical.
In turn, `Cc1nc(N[C@H](C)c2cccc(C(F)(F)F)c2)c2cc(C3CCOCC3)c(=O)n(C)c2n1` [Example 1] displayed an IC50 of 179 nM.

`Cc1nc(N[C@H](C)c2cccc(C(F)(F)F)c2)c2cc(C(C)(C)C)c(=O)n(C)c2n1` [Example 2] registered an IC50 of 817 nM.

Regarding `Cc1nc(N[C@H](C)c2ccc(-c3ccccc3CN(C)C)s2)c2cc(C3CCOCC3)c(=O)n(C)c2n1` [Example 3], the IC50 is 8.3 nM. `Cc1nc(N[C@H](C)c2ccc(-c3ccccc3CN(C)C)s2)c2cc(C3(C)CCOC3)c(=O)n(C)c2n1` (stereo partly shown) [Example 4] registered a half-inhibitory concentration (IC50) below 50 nM.

`Cc1nc(N[C@H](C)c2ccc(-c3ccccc3CN(C)C)s2)c2cc(C3(C)CC3)c(=O)n(C)c2n1` [Example 5] showed an IC50 below 50 nM. Next, `Cc1nc(N[C@H](C)c2cccc(-c3ccccc3CN(C)C)c2)c2cc(C3CCOCC3)c(=O)n(C)c2n1` [Example 6]: below 50 nM. `Cc1nc(N[C@H](C)c2ccc(-c3ccccc3CN(C)C)cc2)c2cc(C3CCOCC3)c(=O)n(C)c2n1` [Example 7] yielded an IC50 below 50 nM. `Cc1nc(N[C@H](C)c2cccc(C(F)(F)F)c2)c2cc(-c3ccc(=O)n(C)c3)c(=O)n(C)c2n1` [Example 8] registered an IC50 of 94 nM. Next, `Cc1nc(N[C@H](C)c2cccc(C(F)(F)F)c2)c2cc(C3=CCOCC3)c(=O)n(C)c2n1` [Example 9]: 118 nM; `Cc1nc(N[C@H](C)c2ccc(-c3ccccc3CN(C)C)s2)c2cc(-c3ccc(=O)n(C)c3)c(=O)n(C)c2n1` [Example 10]: below 50 nM. `Cc1nc(N[C@H](C)c2ccc(-c3ccccc3CN(C)C)s2)c2cc(-c3ccc4c(c3)CCO4)c(=O)n(C)c2n1` [Example 11] came in with an IC50 below 50 nM. For `Cc1nc(N[C@H](C)c2cccc(C(F)(F)F)c2)c2cc(N3CCOCC3)c(=O)n(C)c2n1` [Example 12, (R)-2,8-dimethyl-6-morpholin-4-((1-(3-(trifluoromethyl)phenyl)ethyl)amino) pyrido [2,3-d] pyrimidin-7 (8H)-one] the value was 69 nM; for `Cc1nc(N[C@H](C)c2cccc(C(F)(F)F)c2)c2cc(OC3CCOCC3)c(=O)n(C)c2n1` [Example 13], below 50 nM. Regarding `Cc1nc(N[C@H](C)c2ccc(-c3ccccc3CN(C)C)s2)c2cc(-c3ccc(F)cc3)c(=O)n(C)c2n1` [Example 14], the IC50 was below 50 nM. `Cc1nc(N[C@H](C)c2ccc(-c3ccccc3CN(C)C)s2)c2cc(-c3ccc4nccn4c3)c(=O)n(C)c2n1` [Example 15] came in with an IC50 below 50 nM. Regarding `COc1ccc(-c2cc3c(N[C@H](C)c4ccc(-c5ccccc5CN(C)C)s4)nc(C)nc3n(C)c2=O)cc1` [Example 16], the 50% inhibitory concentration (IC50) is below 50 nM. `Cc1nc(N[C@H](C)c2ccc(-c3ccccc3CN(C)C)s2)c2cc(-c3ccc(N)nc3)c(=O)n(C)c2n1` [Example 17]: the IC50 is below 50 nM. `Cc1nc(N[C@H](C)c2ccc(-c3ccccc3CN3CCCC3)s2)c2cc(-c3ccc(=O)n(C)c3)c(=O)n(C)c2n1` [Example 18]: the IC50 is below 50 nM. Consider `Cc1nc(N[C@H](C)c2ccc(-c3cc(Cl)ccc3CN(C)C)s2)c2cc(-c3ccc(=O)n(C)c3)c(=O)n(C)c2n1` [Example 19], for which the IC50 was below 50 nM.

The compound `Cc1nc(N[C@H](C)c2ccc(-c3ccc(Cl)cc3CN(C)C)s2)c2cc(-c3ccc(=O)n(C)c3)c(=O)n(C)c2n1` [Example 20] yielded an IC50 below 50 nM. The compound `Cc1nc(N[C@H](C)c2cccc(C(F)(F)F)c2)c2cc(C3CCOCC3)c3nccn3c2n1` [Example 21, (R)-2-methyl-6-(tetrahydro-2H-pyran-4-yl)-N-(1-(3-(trifluoromethyl)phenyl)ethyl)imidazo (1′,2′:1,6) pyrido [2,3-d] pyrimidin-4-amino] registered an IC50 of 254 nM.

In turn, `Cc1nc(N[C@H](C)c2cccc(C(F)(F)F)c2)c2cc(-c3ccccc3)c3nccn3c2n1` [Example 22] gave an IC50 above 100 nM. With `Cc1nc(N[C@H](C)c2cc(N)cc(C(F)(F)F)c2)c2cc(-c3ccc(=O)n(C)c3)c3nccn3c2n1` [Example 23], the IC50 was 30.5 nM. With `Cc1nc(N[C@H](C)c2ccc(-c3ccccc3CN(C)C)s2)c2cc(C3CCOCC3)c3nccn3c2n1` [Example 24], the IC50 is below 50 nM. For `Cc1nc(N[C@H](C)c2ccc(-c3ccccc3CN(C)C)s2)c2cc(-c3ccc(=O)n(C)c3)c3nccn3c2n1` [Example 25] the value was below 50 nM; for `Cc1nc(N[C@H](C)c2ccc(-c3cc(F)c(F)cc3CN(C)C)s2)c2cc(-c3ccc(=O)n(C)c3)c(=O)n(C)c2n1` [Example 26], above 100 nM; for `Cc1nc(N[C@H](C)c2sc(-c3ccccc3CN(C)C)cc2Cl)c2cc(-c3ccc(F)cc3)c(=O)n(C)c2n1` [Example 28], below 50 nM. For `Cc1nc(N[C@H](C)c2cc(N)cc(C(F)(F)F)c2)c2cc(-c3ccc4c(c3)CCO4)c3nccn3c2n1` [Example 30, (R)-N-(1-(3-amino-5-(trifluoromethyl)phenyl)ethyl)-6-(2,3-dihydrobenzofuran-5-yl)-2-methylimidazole [1′,2′:1,6] pyridine [2,3-d] pyrimidin-4-amine] the value was 50 to 100 nM; for `Cc1nc(N[C@H](C)c2cc(N)cc(C(F)(F)F)c2)c2cc(N3CCOCC3)c(=O)n(C)c2n1` [Example 31, (R)-4-((1-(3-amino-5-(trifluoromethyl)phenyl)ethyl)amino)-2,8-dimethyl-6-morpholinopyridine [2,3-d] opyrimidin-7 (8H)-one], 187 nM; for `Cc1nc(N[C@H](C)c2cc(N)cc(C(F)(F)F)c2)c2cc(N3C4CCC3COC4)c(=O)n(C)c2n1` [Example 32], 173 nM.

As for `Cc1nc(N[C@H](C)c2cc(N)cc(C(F)(F)F)c2)c2cc(NC34CCC(CC3)CC4)c(=O)n(C)c2n1` [Example 33], the IC50 is above 100 nM. `Cc1nc(N[C@H](C)c2cc(N)cc(C(F)(F)F)c2)c2cc(N3CCC(C(=O)N4CCN(C)CC4)CC3)c(=O)n(C)c2n1` [Example 34] returned an IC50 of 32 nM.

As to `Cc1nc(N[C@H](C)c2cc(N)cc(C(F)(F)F)c2)c2cc(N3CCC(C(=O)N(C)CCO)CC3)c(=O)n(C)c2n1` [Example 35], the IC50 was below 50 nM. For `Cc1nc(N[C@H](C)c2cc(N)cc(C(F)(F)F)c2)c2cc(N3CCN(C4CCCC4)CC3)c(=O)n(C)c2n1` [Example 36] the value was 22 nM; for `Cc1nc(N[C@H](C)c2ccc(-c3cc(F)c(F)cc3CN3CCCC3)cc2)c2cc(N3CCOCC3)c(=O)n(C)c2n1` [Example 37], below 50 nM. Compound `CNS(=O)(=O)c1ccc(-c2cccc([C@@H](C)Nc3nc(C)nc4c3cc(N3CCOCC3)c(=O)n4C)c2)cc1` [Example 38] gave an IC50 below 50 nM. `Cc1nc(N[C@H](C)c2cccc(-c3ccc(C(=O)NCCN(C)C)cc3)c2)c2cc(N3CCOCC3)c(=O)n(C)c2n1` [Example 39] showed an IC50 of 42 nM. Compound `Cc1nc(N[C@H](C)c2ccc(-c3ccccc3CN3CCCC3)cc2)c2cc(N3CCOCC3)c(=O)n(C)c2n1` [Example 40] showed an IC50 below 50 nM. As to `Cc1nc(N[C@H](C)c2cccc(C(F)(F)F)c2)c2cc(N3CCC(C(=O)N4CCN(C)CC4)CC3)c(=O)n(C)c2n1` [Example 42], the IC50 came to 34 nM. As for `Cc1nc(N[C@H](C)c2cccc(C(F)(F)F)c2)c2cc(N3CCN(C4CCCC4)CC3)c(=O)n(C)c2n1` [Example 43], the IC50 worked out at 48 nM.
